The results in this text go back to the supplement of paper PMC12423691.

The chains are these.
B1: TCF7L2, Q9NQB0 (protein)
chain: MPQLNGGGGDDLGANDELISFKDEGEQEEKSSENSSAERDLADVKSSLVNESETNQNSSSDSEAERRPPPRSESFRDKSRESLEEAAKRQDGGLFKGPPYPGYPFIMIPDLTSPYLPNGSLSPTARTLHFQSGSTHYSAYKTIEHQIAVQYLQMKWPLLDVQAGSLQSRQALKDARSPSPAHIVSNKVPVVQHPHHVHPLTPLITYSNEHFTPGNPPPHLPADVDPKTGIPRPPHPPDISPYYPLSPGTVGQIPHPLGWLVPQQGQPVYPITTGGFRHPYPTALTVNASMSRFPPHMVPPHHTLHTTGIPHPAIVTPTVKQESSQSDVGSLHSSKHQDSKKEEEKKKPHIKKPLNAFMLYMKEMRAKVVAECTLKESAAINQILGRRWHALSREEQAKYYELARKERQLHMQLYPGWSARDNYGKKKKRKRDKQPGETNEHSECFLNPCLSLPPITDLSAPKKCRARFGLDQQNNWCGPCRRKKKCVRYIQGEGSCLSPPSSDGSLLDSPPPSPNLLGSPPRDAKSQTEQTQPLSLSLKPDPLAHLSMMPPPPALLLAEATHKASALCPNGALDLPPAALQPAAPSSSIAQPSTSSLHSHSSLAGTQPQPLSLVTKSLE
B2: MESP1, Q9BRJ9 (protein)
chain: MAQPLCPPLSESWMLSAAWGPTRRPPPSDKDCGRSLVSSPDSWGSTPADSPVASPARPGTLRDPRAPSVGRRGARSSRLGSGQRQSASEREKLRMRTLARALHELRRFLPPSVAPAGQSLTKIETLRLAIRYIGHLSAVLGLSEESLQRRCRQRGDAGSPRGCPLCPDDCPAQMQTRTQAEGQGQGRGLGLVSAVRAGASWGSPPACPGARAAPEPRDPPALFAEAACPEGQAMEPSPPSPLLPGDVLALLETWMPLSPLEWLPEEPK
B3: RORC, P51449 (protein)
chain: MDRAPQRQHRASRELLAAKKTHTSQIEVIPCKICGDKSSGIHYGVITCEGCKGFFRRSQRCNAAYSCTRQQNCPIDRTSRNRCQHCRLQKCLALGMSRDAVKFGRMSKKQRDSLHAEVQKQLQQRQQQQQEPVVKTPPAGAQGADTLTYTLGLPDGQLPLGSSPDLPEASACPPGLLKASGSGPSYSNNLAKAGLNGASCHLEYSPERGKAEGRESFYSTGSQLTPDRCGLRFEEHRHPGLGELGQGPDSYGSPSFRSTPEAPYASLTEIEHLVQSVCKSYRETCQLRLEDLLRQRSNIFSREEVTGYQRKSMWEMWERCAHHLTEAIQYVVEFAKRLSGFMELCQNDQIVLLKAGAMEVVLVRMCRAYNADNRTVFFEGKYGGMELFRALGCSELISSIFDFSHSLSALHFSEDEIALYTALVLINAHRPGLQEKRKVEQLQYNLELAFHHHLCKTHRQSILAKLPPKGKLRSLCSQHVERLQIFQHLHPIVVQAAFPPLYKELFSTETESPVGLSK

The list shows a part of the results. Binding of human transcription factors and regulators to the viral nucleoprotein by AlphaScreen, crude cell-free proteins, amounts not normalised, one pass. Fold of the Venus control; higher = more signal. No active / inactive call. Single-pass screen; sequences are the whole Swiss-Prot entries looked up by name.

In this experiment the target is nucleoprotein N of Crimean-Congo hemorrhagic fever virus. Kind of experiment: AlphaScreen luminescence signal relative to Venus negative control (fold); higher = stronger binding to CCHFV N. The method, then: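 AlphaScreen binding of cell-free made, FLAG-GST-tagged human transcription factors and regulators (crude translation products) to biotinylated N protein; signal as fold of the FLAG-GST-Venus control. One pass.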
A general note: Bead proximity is the source of the signal in Alpha formats.
Turning to B1, the AlphaScreen luminescence signal was found to be 2.
The same measure for B2: 2.74; for B3: 4.42.
